# Results as given in PubChem BioAssay AID1346428 (National Center for Advancing Translational Sciences (NCATS), 2018).
# In all, about 48,000 compounds went through this assay and about 1,200 (2.5%) were called active. Not shown: some 2% with an inconclusive outcome.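 The calls were made as follows: active = activation of at least 60% and not above a set upper limit (about 1 call in 100 departs from these limits); inconclusive = activation of 40% to 60%, or above that upper limit; inactive = activation under 40%.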 The list shows a part of the results.
# Target: Probable G-protein coupled receptor 32 (Homo sapiens) (UniProt O75388)
# Test: qHTS for Agonists of Human Resolvin D1 Receptor DRV1; also: 0% is about no effect
# Details: CHO-K1 GPR32 beta-arrestin PathHunter luminescence, 90 min; at 76.9 µM; stronger effect = higher value; zero percent set by DMSO-only wells
# Summary of the method: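 Cells are plated overnight, treated with compounds in DMSO for 90 minutes at 37 °C, and developed with PathHunter detection reagent for 1 hour before luminescence is read; signal reflects beta-arrestin binding to GPR32 in engineered CHO-K1 cells.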
# UniProt O75388, sequence (O75388 whole entry, looked up): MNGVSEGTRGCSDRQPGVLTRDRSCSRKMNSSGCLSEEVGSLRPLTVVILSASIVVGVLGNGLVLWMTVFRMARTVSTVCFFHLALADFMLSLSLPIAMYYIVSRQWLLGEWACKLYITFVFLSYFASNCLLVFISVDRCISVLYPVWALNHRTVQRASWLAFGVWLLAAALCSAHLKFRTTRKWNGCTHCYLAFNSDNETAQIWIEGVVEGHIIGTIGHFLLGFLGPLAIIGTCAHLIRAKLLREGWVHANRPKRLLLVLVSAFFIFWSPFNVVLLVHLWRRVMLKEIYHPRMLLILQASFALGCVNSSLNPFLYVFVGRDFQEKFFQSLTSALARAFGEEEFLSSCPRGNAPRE
row,SMILES,activation
1,COc1ccccc1NC(=O)c1c(NC(=O)c2ccco2)sc2c1CCC(C(C)(C)C)C2 (configuration not stated),inactive: 4.85%
2,CCSc1ncc(Cl)c(C(=O)Nc2c(C(=O)c3ccc(C)c(F)c3)oc3ccccc23)n1,inactive: 3.7%
3,CCOCCCNC(=O)C(c1ccc(C)cc1)N(Cc1cccs1)C(=O)c1ccc(NC(C)=O)cc1 (configuration not stated),inactive: -3.1%
4,CC(=O)c1cccc(NC(=O)c2c(N3CCCC3=O)c3cc(F)ccc3n2C)c1,inactive: -11.6%
5,Cc1nc2nc(SCC(=O)NCc3ccccc3Cl)nn2c(C)c1Cc1ccccc1,inactive: -5.8%
6,CCc1ccc(NC(=O)C(CC)n2c(=O)c(C(F)(F)F)nc3ccccc32)cc1 (configuration not stated),inactive: -6.72%
7,COc1cc(Cl)c(C)cc1Nc1ncnc2c1nc1n2CCCC1,inactive: -11.3%
8,CCOC(=O)Cn1c(=O)c2c(nc3n2CCN3c2ccc(CC)cc2)n(C)c1=O,inactive: -12.1%
9,CCc1nc(-c2cc(S(=O)(=O)N3CCN(c4ccccc4OC)CC3)ccc2OC)no1,inactive: -14.8%
10,COc1ccc(-c2cc(C(=O)Nc3c(C)nn(Cc4ccc(C)cc4)c3C)no2)cc1OC,inactive: -6.02%
11,Cc1ccc(-c2nnc(Nc3ccc(O)cc3)c3ccccc23)cc1S(=O)(=O)N1CCOCC1,inactive: -14.5%
12,COc1ccc(Cl)cc1NC(=O)CN1C(=O)COc2ccc(S(=O)(=O)NC3CCCC3)cc21,inactive: -1.61%
13,COc1cccc(NS(=O)(=O)c2ccc(-c3cc(C)no3)s2)c1,inactive: -3.73%
14,Cc1ccc(Nc2nn3c(=O)c4cc5c(cc4nc3s2)OCO5)cc1Cl,inactive: 2.22%
15,CCOC(=O)c1cc(-c2ccccc2)n(-c2cccc(C(=O)Nc3ccc(OCC)cc3)c2)c1C,inactive: -22.9%
16,COc1cccc(Cn2c(=O)n(Cc3ccco3)c(=O)c3oc4ccccc4c32)c1,inactive: -1.83%
17,CC(=O)N1CCCc2cc(S(=O)(=O)N3CCC(C(=O)NCc4cccc(C)c4)CC3)ccc21,inactive: -4.96%
18,CN(C(=O)CSc1cn(CC(=O)N2CCOCC2)c2ccccc12)c1ccccc1,inactive: 1.12%
19,CCCCN(CC)CCNC(=O)Cn1cc2c(n1)-c1c(oc(C(=O)N3CCCC3)c1C)CC2,inactive: -3.01%
20,CCCOc1cccc(C(=O)N(Cc2ccc(C)o2)C2CCS(=O)(=O)C2)c1 (configuration not stated),inactive: -14%
21,COc1cc(NC(=O)CC2C(=O)N(c3cccc(C)c3)C(=O)N2Cc2ccc(F)cc2)cc(OC)c1 (configuration not stated),inactive: -22.9%

row,SMILES,activation
1,CCOC(=O)c1cc2c(=O)n3ccccc3nc2n(CC(C)C)c1=NC(=O)c1c(-c2c(F)cccc2Cl)noc1C,inactive: -5.39%
2,CCCN(C(=O)c1noc2c1COc1ccc(C)cc1-2)c1ccc(Cl)c(Cl)c1,inactive: -0.371%
3,CC(=O)Nc1ccc(NC(=O)CSc2nccn2C)cc1,inactive: -2.02%
4,COCCNc1sc(S(=O)(=O)c2ccc(C)cc2)nc1S(=O)(=O)c1ccc(C)cc1,inactive: -22%
5,COC(=O)c1ccccc1NC(=O)c1c(NC(=O)c2ccco2)sc2c1CCC(C(C)(C)C)C2 (configuration not stated),inactive: 3.08%
6,CCc1ccccc1NC(=O)c1cc(S(=O)(=O)N2CCCC2)cn1C,inactive: -8.51%
7,Cc1cccc(N2CCN(C(=O)CCc3c(C)nc4ncnn4c3C)CC2)c1C,inactive: -4.87%
8,COCCN1C(=O)c2[nH]nc(-c3cc(C)ccc3O)c2C1c1ccc(C(C)C)cc1 (configuration not stated),inactive: 25.2%
9,COC(=O)c1cnc(N2CCN(c3ccccc3F)CC2)c2ccccc12,inactive: 13.5%
10,Cc1ccc(NC(=O)C2CCN(c3nc4ccccc4[nH]3)CC2)c(C)c1,inactive: -14.5%
11,Cc1ccc(Cn2c(=O)n(CCCC(=O)NCc3ccccc3Cl)c(=O)c3ccccc32)cc1,inactive: -2.35%
12,COc1ccc(OC)c(NC(=O)c2c(NCc3cccs3)sc3c2CCCC3)c1,inactive: -2.23%
13,O=C(Cc1ccccc1)Nc1cccc(-c2cn3cccnc3n2)c1,inactive: 16.7%
14,COc1ccccc1NC(=O)NCCN1CCN(c2cccc(Cl)c2)CC1,inactive: 12.2%
15,CC(C)c1cccc(C(C)C)c1NC1=NS(=O)(=O)c2ccccc21,inactive: -10.6%
16,CCOc1ccc(S(=O)(=O)Nc2ccc3c(c2)N(C(C)=O)CCC3)cc1,inactive: -7.18%
17,COC(=O)C(C)Sc1ncnc2c1c(-c1ccccc1)cn2-c1ccc(F)cc1 (configuration not stated),inactive: -0.458%
18,Cc1cccc(C)c1-n1ncc(C(=O)N2CCN(c3ccccc3)CC2)c1C1CCN(C(=O)OC(C)(C)C)CC1,inactive: -13.5%
19,O=C(Cn1c(-c2cccs2)cc2ccccc21)NCCc1ccc(Cl)cc1,inactive: -13.9%
20,CN(CC(=O)Nc1cccc(C(F)(F)F)c1)S(=O)(=O)c1cccs1,active: 67.5%
21,Cc1ccc(CNS(=O)(=O)c2cc3c(cc2C)NC(=O)CO3)cc1,inactive: -19.4%
